MIC (lowest dose with no growth) of environmental A. fumigatus isolates, CLSI broth microdilution in RPMI 1640, up to 16 µg/mL, 48 h at 37 °C, mean of two or three runs; higher = less susceptible. No active / inactive call per row; the paper counts tebuconazole above 3, itraconazole and voriconazole above 2 and posaconazole above 0.25 µg/mL as resistant. The source writes 17 for growth at the top dose; shown as '>' 16, and '>=' 16 where runs were 16 and above. cyp51A changes are as printed. Isolates are numbered anew.
Key:
Assay in all cases: CLSI broth microdilution in RPMI 1640, up to 16 µg/mL, 48 h at 37 °C; full growth inhibition.
itraconazole = compound: CCC(C)n1ncn(-c2ccc(N3CCN(c4ccc(OCC5COC(Cn6cncn6)(c6ccc(Cl)cc6Cl)O5)cc4)CC3)cc2)c1=O [itraconazole]
tebuconazole = compound: CC(C)(C)C(O)(CCc1ccc(Cl)cc1)Cn1cncn1 [tebuconazole]
posaconazole = compound: CC[C@@H]([C@H](C)O)n1ncn(-c2ccc(N3CCN(c4ccc(OC[C@@H]5CO[C@@](Cn6cncn6)(c6ccc(F)cc6F)C5)cc4)CC3)cc2)c1=O [posaconazole]
voriconazole = compound: C[C@@H](c1ncncc1F)[C@](O)(Cn1cncn1)c1ccc(F)cc1F [voriconazole]

Row | Test System | MIC (itraconazole) [µg/mL] | MIC (tebuconazole) [µg/mL] | MIC (posaconazole) [µg/mL] | MIC (voriconazole) [µg/mL]
1 | Aspergillus fumigatus isolate 1 (cyp51A: TR34/Y46F/L98H/V172M/T248N/E255D/K427E) | 16 | 16 | 1 | 4
2 | Aspergillus fumigatus isolate 2 (cyp51A: Y46F/V172M/T248N/E255D/K427E) | 2 | 4 | 1 | 1
3 | Aspergillus fumigatus isolate 3 (cyp51A: Y46F/V172M/T248N/E255D/K427E) |  | 1 |  | 
4 | Aspergillus fumigatus isolate 4 (cyp51A: T248N/E255D) | 2 | 8 | 1 | 2
5 | Aspergillus fumigatus isolate 5 (cyp51A: TR46/Y46F/Y121F/V172M/T248N/E255D/T289A/K427E) | 1.66 | 13.3 | 0.83 | ≥ 16
6 | Aspergillus fumigatus isolate 6 (cyp51A: WT) | 1.5 | 2 | 0.5 | 0.5
7 | Aspergillus fumigatus isolate 7 (cyp51A: Y46F/V172M/T248N/E255D/K427E) |  | 1 |  | 
8 | Aspergillus fumigatus isolate 8 (cyp51A: Y46F/V172M/I242V/T248N/E255D/K427E) | 2 | 4 | 0.75 | 0.75
9 | Aspergillus fumigatus isolate 9 (cyp51A: Y46F/V172M/T248N/E255D/K427E) |  | 1 |  | 
10 | Aspergillus fumigatus isolate 10 (cyp51A: Y46F/V172M/T248N/E255D/K427E) | 1.5 | 2 | 0.375 | 0.375
11 | Aspergillus fumigatus isolate 11 (cyp51A: T248N/E255D) | 1 | 2 | 0.5 | 0.375
12 | Aspergillus fumigatus isolate 12 (cyp51A: Y46F/V172M/T248N/E255D/K427E) | 1.5 | 4 | 0.5 | 1
13 | Aspergillus fumigatus isolate 13 (cyp51A: T248N/E255D) | 1 | 2 | 0.5 | 0.5
14 | Aspergillus fumigatus isolate 14 (cyp51A: TR34/Y46F/L98H/V172M/T248N/E255D/K427E) | 16 | > 16 | 1 | 4
15 | Aspergillus fumigatus isolate 15 (cyp51A: Y46F/V172M/I242V/T248N/E255D/K427E) | 2 | 4 | 0.75 | 1
16 | Aspergillus fumigatus isolate 16 (cyp51A: T248N/E255D) |  | 2 |  | 
17 | Aspergillus fumigatus isolate 17 (cyp51A: WT) | 2 | 2 | 0.5 | 0.375
18 | Aspergillus fumigatus isolate 18 (cyp51A: TR46/Y46F/Y121F/V172M/T248N/E255D/T289A/K427E) | 2 | > 16 | 0.5 | > 16
19 | Aspergillus fumigatus isolate 19 (cyp51A: T248N/E255D) | 1 | 2 | 0.5 | 0.5
20 | Aspergillus fumigatus isolate 20 (cyp51A: TR46/Y46F/Y121F/V172M/T248N/E255D/T289A/K427E) | 1.33 |  | 0.66 | ≥ 16
21 | Aspergillus fumigatus isolate 21 (cyp51A: TR34/Y46F/L98H/V172M/T248N/E255D/K427E) | > 16 |  | 1.33 | 1
22 | Aspergillus fumigatus isolate 22 (cyp51A: Y46F/V172M/T248N/E255D/K427E) | 1 | 2 | 0.5 | 0.5
23 | Aspergillus fumigatus isolate 23 (cyp51A: Y46F/V172M/T248N/E255D/K427E) |  | 1 |  | 
24 | Aspergillus fumigatus isolate 24 (cyp51A: WT) | 2 | 2 | 0.5 | 0.5
25 | Aspergillus fumigatus isolate 25 (cyp51A: TR34/Y46F/L98H/V172M/T248N/E255D/K427E) | > 16 | ≥ 16 | 1 | 4
26 | Aspergillus fumigatus isolate 26 (cyp51A: Y46F/V172M/T248N/E255D/K427E) |  | 2 |  | 
27 | Aspergillus fumigatus isolate 27 (cyp51A: T248N/E255D) | 1 | 2 | 0.5 | 0.5

Row | Test System | MIC (itraconazole) [µg/mL] | MIC (tebuconazole) [µg/mL] | MIC (posaconazole) [µg/mL] | MIC (voriconazole) [µg/mL]
28 | Aspergillus fumigatus isolate 28 (cyp51A: Y46F/V172M/T248N/E255D/K427E) | 2 | 4 | 0.5 | 0.75
29 | Aspergillus fumigatus isolate 29 (cyp51A: WT) | 1.5 | 2 | 0.5 | 0.5
30 | Aspergillus fumigatus isolate 30 (cyp51A: T248N/E255D) | 2 | 2 | 0.5 | 0.5
31 | Aspergillus fumigatus isolate 31 (cyp51A: T248N/E255D) | 1.5 | 2 | 0.5 | 0.5
32 | Aspergillus fumigatus isolate 32 (cyp51A: Y46F/V172M/T248N/E255D/K427E) |  | 1 |  | 
33 | Aspergillus fumigatus isolate 33 (cyp51A: Y46F/V172M/T248N/E255D/K427E/L464I) | 1.5 | 4 | 0.5 | 1
34 | Aspergillus fumigatus isolate 34 (cyp51A: T248N/E255D) | 1.5 | 4 | 0.5 | 1
35 | Aspergillus fumigatus isolate 35 (cyp51A: Y46F/V172M/I242V/T248N/E255D/K427E) | 2 | 4 | 0.5 | 1
36 | Aspergillus fumigatus isolate 36 (cyp51A: Y46F/V172M/T248N/E255D/K427E) | 1.5 | 2 | 0.5 | 0.5
37 | Aspergillus fumigatus isolate 37 (cyp51A: Y46F/V172M/T248N/E255D/K427E/L464I) | 1.5 | 4 | 0.75 | 1
38 | Aspergillus fumigatus isolate 38 (cyp51A: TR34/Y46F/L98H/V172M/T248N/E255D/K427E) | ≥ 16 | ≥ 16 | 1 | 3
39 | Aspergillus fumigatus isolate 39 (cyp51A: TR34/Y46F/L98H/V172M/T248N/E255D/K427E) | 8 | 12 | 0.75 | 3
40 | Aspergillus fumigatus isolate 40 (cyp51A: TR46/Y46F/Y121F/V172M/T248N/E255D/T289A/K427E) | 1 | 16 | 0.5 | > 16
41 | Aspergillus fumigatus isolate 41 (cyp51A: TR34/Y46F/L98H/V172M/T248N/E255D/K427E) | ≥ 16 | ≥ 16 | 1 | 4
42 | Aspergillus fumigatus isolate 42 (cyp51A: TR34/Y46F/L98H/V172M/T248N/E255D/K427E) | > 16 | > 16 | 1 | 4
43 | Aspergillus fumigatus isolate 43 (cyp51A: T248N/E255D) | 1.5 | 2 | 0.5 | 0.375
44 | Aspergillus fumigatus isolate 50 (cyp51A: Y46F/V172M/T248N/E255D/K427E) |  | 2 |  | 
45 | Aspergillus fumigatus isolate 51 (cyp51A: Y46F/V172M/T248N/E255D/K427E) |  | 2 |  | 
46 | Aspergillus fumigatus isolate 55 (cyp51A: TR34/Y46F/L98H/V172M/T248N/E255D/K427E) |  | ≥ 16 | 1.33 | 4
47 | Aspergillus fumigatus isolate 57 (cyp51A: Y46F/V172M/T248N/E255D/K427E) |  | 1.5 |  | 
48 | Aspergillus fumigatus isolate 60 (cyp51A: TR34/Y46F/L98H/V172M/T248N/E255D/K427E) |  | ≥ 16 | 1 | 4
49 | Aspergillus fumigatus isolate 65 (cyp51A: Y46F/V172M/T248N/E255D/K427E) |  | 1.5 |  | 
50 | Aspergillus fumigatus isolate 69 (cyp51A: Y46F/V172M/T248N/E255D/K427E) |  | 1.5 |  | 
51 | Aspergillus fumigatus isolate 71 (cyp51A: Y46F/V172M/T248N/E255D/K427E) |  | 1 |  | 
52 | Aspergillus fumigatus isolate 80 (cyp51A: T248N/E255D) |  | 1.5 |  | 
53 | Aspergillus fumigatus isolate 85 (cyp51A: Y46F/V172M/T248N/E255D/K427E) |  | 2 |  | 

— the supplement of paper PMC11022549
